Measurements from patent US8722849B2, “Polypeptides” (Novo Nordisk A/S, priority 2011, dated 2014).
Read-outs that look alike come from different tables or passages of the source. Part of at least one peptide drawing is inferred or uncertain, most often the ends. For part of these data: At least one read-out could not be matched to a standard name with certainty. Starred links: 1 amine or outer side, 2 acyl side, 3 side chain; linkers in the order of their positions; H or OH if unused. Positions of bridges follow the written chain, without caps; N, C: chain ends. Residues, ends and D or L forms follow the SMILES beside them. Groups on a side chain read outwards from the residue. *: point of attachment. C20 diacid = O=C(O)CCCCCCCCCCCCCCCCCCC(=O)*; γGlu = O=C(O)[C@H](CCC(=O)[*:2])N[*:1]; AEEA = NCCOCCOCC(=O)O

Experiments:
[1] = target: T1, human calcitonin receptor (Homo sapiens, UniProt P30988); test: Assay (II)a functional CRE-luciferase assay, human calcitonin receptor; type: cell-based
T1 construct: expressed in transfected cells; host or cells: BHK570
T1 sequence (P30988 25-474): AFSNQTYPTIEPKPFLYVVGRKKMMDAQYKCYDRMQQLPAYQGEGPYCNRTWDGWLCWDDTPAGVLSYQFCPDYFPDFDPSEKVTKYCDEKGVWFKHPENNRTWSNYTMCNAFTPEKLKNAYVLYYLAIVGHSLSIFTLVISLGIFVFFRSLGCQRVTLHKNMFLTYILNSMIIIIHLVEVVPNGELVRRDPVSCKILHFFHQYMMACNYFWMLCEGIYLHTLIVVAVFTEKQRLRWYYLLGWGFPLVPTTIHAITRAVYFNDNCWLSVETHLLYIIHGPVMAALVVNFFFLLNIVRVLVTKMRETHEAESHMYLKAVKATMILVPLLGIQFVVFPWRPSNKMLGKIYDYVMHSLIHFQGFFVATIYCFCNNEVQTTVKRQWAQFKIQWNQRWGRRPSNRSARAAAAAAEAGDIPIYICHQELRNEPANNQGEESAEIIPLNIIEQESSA

[2] = Assay (IV) determination of solubility; type: physicochemical
Procedure: ASSAY (IV)—Determination of Solubility
The polypeptide was dissolved in water at ˜500 nmol/ml and mixed 1:1 with a series of buffers (100 mM glycylglycine pH 3.0, 100 mM glycylglycine pH 4.0, 100 mM glycylglycine pH 5.0, 100 mM bistrispropane pH 6.0, 100 mM bistrispropane pH 6.5, 100 mM bistrispropane pH 7.0, 100 mM bistrispropane pH 7.5, 100 mM bistrispropane pH 8.0). After 18 hours at room temperature the samples were centrifuged and the polypeptide concentration determined by HPLC.

[3] = Assay (III) ThT fibrillation assay for physical stability; type: physicochemical; details: ThT fibrillation assay
Procedure, shortened: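 Freshly prepared formulations, pH-adjusted, with 1 μM ThT; four or eight replicates incubated at 37 °C under 960 rpm orbital shaking. Fluorescence (ex 444/em 485 nm) read every 20 min; […]. Peptide concentration measured by RP-HPLC before and after the run.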

[4] = target: T2, human amylin receptor (amylin 3(a) receptor: human calcitonin receptor + RAMP-3) (Homo sapiens, UniProt O60896+P30988); test: Assay (II)a functional CRE-luciferase assay, human amylin receptor; type: cell-based
T2 construct: expressed in transfected cells; host or cells: BHK570
T2 sequence (P30988 25-474): T1 sequence (P30988 25-474)
T2 sequence (O60896 24-148 partner): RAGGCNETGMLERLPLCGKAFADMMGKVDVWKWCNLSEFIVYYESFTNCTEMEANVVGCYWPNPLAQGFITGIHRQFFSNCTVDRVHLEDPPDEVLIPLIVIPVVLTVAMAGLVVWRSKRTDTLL

[5] = Table 11, read-out: CTa receptor human EC50
[6] = Table 2, BHK amylin 3(a)-receptor/CRE-luc cells
[7] = Table 7, human calcitonin (CTa) receptor

| Compound | EC50 [1, 5] [nM] | Solubility pH 8.0 [2] [μM] | ThT pH 4.0 lag time (h) [3] [h] | ThT pH 4.0 recovery (%) [3] [%] | EC50 [4, 6] [nM] | EC50 ([4]; Table 11) [nM] | EC50 [1, 7] [nM] | EC50 ([4]; Table 6, human amylin receptor) [nM] | EC50 ([4]; Table 7, human amylin receptor) [nM] | ThT pH 4.0 lag time [3] [h] | ThT pH 4.0 recovery [3] [%] | EC50 ([4]; Table 5) [nM] |
| --- | --- | --- | --- | --- | --- | --- | --- | --- | --- | --- | --- | --- |
| CC[C@H](C)[C@H](NC(=O)[C@H](CCCCNC(=O)COCCOCCNC(=O)COCCOCCNC(=O)CC[C@H](NC(=O)CCCCCCCCCCCCCCCCCCC(=O)O)C(=O)O)NC(=O)CNC(=O)[C@H](Cc1ccccc1)NC(=O)[C@H](CC(N)=O)NC(=O)[C@H](CC(N)=O)NC(=O)[C@H](CO)NC(=O)[C@H](CO)NC(=O)[C@H](Cc1c[nH]cn1)NC(=O)[C@H](Cc1c[nH]cn1)NC(=O)[C@H](CC(C)C)NC(=O)[C@H](Cc1ccccc1)NC(=O)[C@H](CC(N)=O)NC(=O)[C@H](C)NC(=O)[C@H](CC(C)C)NC(=O)[C@H](CCCNC(=N)N)NC(=O)[C@H](CCC(N)=O)NC(=O)[C@@H](NC(=O)[C@H](C)NC(=O)[C@@H]1CSSC[C@H](NC(=O)[C@@H](N)CCCCN)C(=O)N[C@@H](CC(N)=O)C(=O)N[C@@H]([C@@H](C)O)C(=O)N[C@@H](C)C(=O)N[C@@H]([C@@H](C)O)C(=O)N1)[C@@H](C)O)C(=O)N[C@@H](CC(C)C)C(=O)N[C@@H](CO)C(=O)N[C@@H](CO)C(=O)N[C@H](C(=O)N[C@@H](CC(N)=O)C(=O)N[C@H](C(=O)NCC(=O)N[C@@H](CO)C(=O)N[C@@H](Cc1c[nH]cn1)C(=O)N[C@H](C(=O)N[C@@H](Cc1ccc(O)cc1)C(N)=O)[C@@H](C)O)C(C)C)[C@@H](C)O [Example 140, N-epsilon25-[2-(2-{2-[2-(2-{2-[(S)-4-Carboxy-4-(19-carboxyheptadecanoylamino)butyrylamino]ethoxy}ethoxy)acetylamino]ethoxy}ethoxy)acetyl]-[His17,Lys25,Ser28,Ser29,His35]-pramlintide] (H-KCNTATCATQRLANFLHHSSNNFGK([AEEA-AEEA-γGlu-C20 diacid])ILSSTNVGSHTY-NH2; disulfide 2-7) | 0.114 | 1 | 0 | 6 | 0.199 | 0.199 |  |  |  |  |  |  |
| CC[C@H](C)[C@H](NC(=O)[C@@H]1CCCN1C(=O)CNC(=O)[C@H](Cc1ccccc1)NC(=O)[C@H](CC(N)=O)NC(=O)[C@H](CCCCNC(=O)COCCOCCNC(=O)COCCOCCNC(=O)CC[C@H](NC(=O)CCCCCCCCCCCCCCCCCCC(=O)O)C(=O)O)NC(=O)[C@H](CO)NC(=O)[C@H](CO)NC(=O)[C@H](Cc1c[nH]cn1)NC(=O)[C@H](Cc1c[nH]cn1)NC(=O)[C@H](CC(C)C)NC(=O)[C@H](Cc1ccccc1)NC(=O)[C@H](CCC(=O)O)NC(=O)[C@H](C)NC(=O)[C@H](CC(C)C)NC(=O)[C@H](CCCNC(=N)N)NC(=O)[C@H](CCC(N)=O)NC(=O)[C@@H](NC(=O)[C@H](C)NC(=O)[C@@H]1CSSC[C@H](NC(=O)[C@@H](N)CCCCN)C(=O)N[C@@H](CC(N)=O)C(=O)N[C@@H]([C@@H](C)O)C(=O)N[C@@H](C)C(=O)N[C@@H]([C@@H](C)O)C(=O)N1)[C@@H](C)O)C(=O)N[C@@H](CC(C)C)C(=O)N[C@@H](CO)C(=O)N1CCC[C@H]1C(=O)N[C@H](C(=O)N[C@@H](CC(N)=O)C(=O)N[C@H](C(=O)NCC(=O)N[C@@H](CO)C(=O)N[C@@H](Cc1c[nH]cn1)C(=O)N[C@H](C(=O)N[C@@H](Cc1ccc(O)cc1)C(N)=O)[C@@H](C)O)C(C)C)[C@@H](C)O [Example 144, N-epsilon21-[2-(2-{2-[2-(2-{2-[(S)-4-Carboxy-4-(19-carboxyheptadecanoylamino)butyrylamino]ethoxy}ethoxy)acetylamino]ethoxy}ethoxy)acetyl]-[Glu14,His17,Lys21,Ser28,His35]-pramlintide] (H-KCNTATCATQRLAEFLHHSSK([AEEA-AEEA-γGlu-C20 diacid])NFGPILSPTNVGSHTY-NH2; disulfide 2-7) | 0.347 | 1 | 1.3 | 25 | 0.625 | 0.625 | 0.347 | 0.625 | 0.625 |  |  |  |
| CC[C@H](C)[C@H](NC(=O)[C@H](CCCCNC(=O)COCCOCCNC(=O)COCCOCCNC(=O)CC[C@H](NC(=O)CCCCCCCCCCCCCCCCCCC(=O)O)C(=O)O)NC(=O)CNC(=O)[C@H](Cc1ccccc1)NC(=O)[C@H](CC(N)=O)NC(=O)[C@H](CO)NC(=O)[C@H](CO)NC(=O)[C@H](CO)NC(=O)[C@H](Cc1c[nH]cn1)NC(=O)[C@H](Cc1c[nH]cn1)NC(=O)[C@H](CC(C)C)NC(=O)[C@H](Cc1ccccc1)NC(=O)[C@H](CCC(=O)O)NC(=O)[C@H](C)NC(=O)[C@H](CC(C)C)NC(=O)[C@H](CCCNC(=N)N)NC(=O)[C@H](CCC(N)=O)NC(=O)[C@@H](NC(=O)[C@H](C)NC(=O)[C@@H]1CSSC[C@H](NC(=O)[C@@H](N)CCCCN)C(=O)N[C@@H](CC(N)=O)C(=O)N[C@@H]([C@@H](C)O)C(=O)N[C@@H](C)C(=O)N[C@@H]([C@@H](C)O)C(=O)N1)[C@@H](C)O)C(=O)N[C@@H](CC(C)C)C(=O)N[C@@H](CO)C(=O)N[C@@H](CO)C(=O)N[C@H](C(=O)N[C@@H](CC(N)=O)C(=O)N[C@H](C(=O)NCC(=O)N[C@@H](CO)C(=O)N[C@@H](Cc1c[nH]cn1)C(=O)N[C@H](C(=O)N[C@@H](Cc1ccc(O)cc1)C(N)=O)[C@@H](C)O)C(C)C)[C@@H](C)O [Example 133, N-epsilon25-[2-(2-{2-[2-(2-{2-[(S)-4-Carboxy-4-(19-carboxyheptadecanoylamino)butyrylamino]ethoxy}ethoxy)acetylamino]ethoxy}ethoxy)acetyl]-[Glu14,His17,Ser21,Lys25,Ser28,Ser29.His35]-pramlintide] (H-KCNTATCATQRLAEFLHHSSSNFGK([AEEA-AEEA-γGlu-C20 diacid])ILSSTNVGSHTY-NH2; disulfide 2-7) | 0.142 | 1 | >45 | 37 | 0.416 | 0.416 | 0.142 | 0.416 | 0.416 | >45 | 37 | 0.416 |
